According to PubChem BioAssay (Tox21):
Where “and” joins values, the source holds several entries; their conditions need not be identical. Equal entries are not always repeated. Inconclusive results, whose numbers are uncertain, are shown with a selection of clear calls. For some assays here: Where the call is inconclusive, the potency comes from a doubtful curve fit. Calls of active or inactive are those of the source. Unless noted, the call rests on the fitted dose curve; in most records, active means well fitted curve in the direction sought with a large enough effect in the repeat runs; inconclusive means weak or mixed curves; inactive means no such curve, though single readings can be large; an effect the other way counts as inactive or inconclusive.

Experiments:
[1] = qHTS assay for small molecule agonists of the p53 signaling pathway (AID 651631; calls by dose curve; further: nearly all actives have a fitted effect of over 15% in size); conditions: HCT-116 p53RE-bla reporter, beta-lactamase FRET ratio, 16 h; activation: at 73.3 µM (top of the series) unless noted
Summary of the method: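 Read-out is beta-lactamase FRET fluorescence measured 2 h after substrate addition at room temperature, in HCT-116 cells with a p53 response element-driven reporter exposed to compounds for 16 h at 37 °C.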

[2] = qHTS assay for small molecule agonists of the p53 signaling pathway - cell viability (AID 651633; calls by dose curve; further: nearly all actives have a fitted effect of over 30% in size)
Summary of the method: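 p53RE-bla cells, seeded at 4,000 per well and rested 5 h at 37 C/5% CO2, received compounds in DMSO for 16 h at 37 C. CellTiter-Glo was then added, and luminescence was read after 30 min at room temperature to gauge cytotoxicity.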

[3] = qHTS assay for small molecules that induce genotoxicity in human embryonic kidney cells expressing luciferase-tagged ATAD5 - cell viability (AID 651634; calls by dose curve; further: nearly all actives have a fitted effect of over 25% in size)
Summary of the method: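 Cells (HEK293T, luciferase-tagged ATAD5) are seeded at 2,000 per well, dosed with compound or DMSO vehicle, and incubated 15.5 hr at 37C and 5% CO2. CellTiter-Fluor is added for 30 min before fluorescence is measured.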

[4] = qHTS assay for small molecule disruptors of the mitochondrial membrane potential (AID 720635); conditions: HepG2 mitochondrial membrane potential, Mito-MPS dye ratio; ratio activity, negative = MMP loss: at 83.2 µM (top of the series) unless noted
Summary of the method: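 HepG2 cells (2,000/well) attached overnight at 37C, then took compound for 1 hr at 37C, 5% CO2. Mito-MPS dye was added for 30 min; fluorescence was read at 490/535 nm (monomers) and 540/590 nm (aggregates).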

[5] = molecular target: Glucocorticoid receptor (Homo sapiens) (UniProt P04150); assay: qHTS assay to identify small molecule antagonists of the glucocorticoid receptor (GR) signaling pathway (AID 720692; active means well fitted inhibition curve with a large enough effect in the signal ratio in the repeat runs, not every such curve was filed as active; inconclusive means weak or mixed curves, or effect the other way; inactive means no such curve, though single readings can be large or run the other way; the % refers to the signal ratio; on activity change, negative = inhibition: on the % scale 0 is the no-effect control and ±100 the full control effect); conditions: GR-bla HeLa, beta-lactamase FRET ratio, dexamethasone-stimulated, 18 h; activity change, negative = inhibition: at 58.5 µM (top of the series) unless noted
Summary of the method: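 Antagonism was scored as loss of dexamethasone-driven (5 nM final) reporter signal in HeLa cells bearing a glucocorticoid response element–beta-lactamase construct, after 18 h compound exposure at 37 C and 2 h FRET substrate loading.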

[6] = qHTS assay for identifying genotoxic compounds that show differential cytotoxicity against isogenic chicken DT40 cell lines with known DNA damage response pathways - Rad54/Ku70 mutant cell line (AID 743015); conditions: DT40 Rad54/Ku70 mutant viability, CellTiter-Glo, 40 h; activity change, negative = cytotoxicity: at 66.8 µM (top of the series); further: nearly all actives have a fitted effect of over 60% in size
[7] = qHTS assay to identify small molecule antagonists of the androgen receptor (AR) signaling pathway - cell viability counter screen (AID 743033; further: nearly all actives have a fitted effect of over 45% in size; on activity change, negative = cytotoxicity: on the % scale 0 is the no-effect control and ±100 the full control effect); conditions: AR-bla HEK293 viability, CellTiter-Glo luminescence, 16 h; activity change, negative = cytotoxicity: at 58.5 µM (top of the series)
[8] = qHTS assay for small molecule disruptors of the mitochondrial membrane potential - cell viability (AID 720634; calls by dose curve; further: nearly all actives have a fitted effect of over 20% in size)
Summary of the method: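 Cytotoxicity was measured by ATP quantitation in HepG2 wells that had first been treated with compound for 1 hr and stained with m-MPI dye; CellTiter-Glo incubation was 30 min at room temperature.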

[9] = qHTS assay to identify small molecule antagonists of the glucocorticoid receptor (GR) signaling pathway - cell viability counter screen (AID 720693); conditions: GR-bla HeLa viability, CellTiter-Glo luminescence, 18 h, with 5 nM dexamethasone present; viability change, negative = cytotoxic: at 58.5 µM (top of the series) unless noted; further: nearly all actives have a fitted effect of over 55% in size
[10] = qHTS assay for identifying genotoxic compounds that show differential cytotoxicity against isogenic chicken DT40 cell lines with known DNA damage response pathways - wild type cell line (AID 743012); conditions: DT40 wild type chicken cells viability, CellTiter-Glo, 40 h; activity change, negative = cytotoxicity: at 68.4 µM (top of the series) unless noted; further: nearly all actives have a fitted effect of over 60% in size
Summary of the method: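 Cytotoxicity in repair-proficient parental chicken DT40 cells serves as the comparator for Rad54/Ku70- and Rev3-deficient lines. Cells were exposed to compounds for 40 h at 37 C/5% CO2, and ATP-based luminescence (CellTiter-Glo) measured viability.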

[11] = qHTS assay for identifying genotoxic compounds that show differential cytotoxicity against isogenic chicken DT40 cell lines with known DNA damage response pathways - Rev3 mutant cell line (AID 743014); conditions: chicken DT40 Rev3-/- viability, CellTiter-Glo, 40 h; activity, negative = cytotoxicity: at 68.4 µM (top of the series); further: nearly all actives have a fitted effect of over 55% in size
[12] = molecular target: Glucocorticoid receptor (Homo sapiens) (UniProt P04150); assay: qHTS assay to identify small molecule agonists of the glucocorticoid receptor (GR) signaling pathway (AID 720691; active means well fitted activation curve with a large enough effect in the signal ratio in the repeat runs, not every such curve was filed as active; inconclusive means weak or mixed curves, or effect the other way; inactive means no such curve, though single readings can be large or run the other way; the % refers to the signal ratio); conditions: GR-bla HeLa, beta-lactamase reporter ratio, 18 h; activation: at 62.4 µM (top of the series) unless noted
Summary of the method: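 Steps: seed GR-bla HeLa cells, incubate 4 h at 37 C/5% CO2; pin-transfer DMSO-dissolved compounds; incubate 18 h at 37 C; add LiveBLAzer B/G FRET substrate; after 2 h at room temperature, measure fluorescence.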
Potency means the concentration at half of the fitted maximal effect; tags describe the fitted curve by direction and shape or compound fluorescence and quenching.

Chain of UniProt P04150 (P04150 whole entry, looked up): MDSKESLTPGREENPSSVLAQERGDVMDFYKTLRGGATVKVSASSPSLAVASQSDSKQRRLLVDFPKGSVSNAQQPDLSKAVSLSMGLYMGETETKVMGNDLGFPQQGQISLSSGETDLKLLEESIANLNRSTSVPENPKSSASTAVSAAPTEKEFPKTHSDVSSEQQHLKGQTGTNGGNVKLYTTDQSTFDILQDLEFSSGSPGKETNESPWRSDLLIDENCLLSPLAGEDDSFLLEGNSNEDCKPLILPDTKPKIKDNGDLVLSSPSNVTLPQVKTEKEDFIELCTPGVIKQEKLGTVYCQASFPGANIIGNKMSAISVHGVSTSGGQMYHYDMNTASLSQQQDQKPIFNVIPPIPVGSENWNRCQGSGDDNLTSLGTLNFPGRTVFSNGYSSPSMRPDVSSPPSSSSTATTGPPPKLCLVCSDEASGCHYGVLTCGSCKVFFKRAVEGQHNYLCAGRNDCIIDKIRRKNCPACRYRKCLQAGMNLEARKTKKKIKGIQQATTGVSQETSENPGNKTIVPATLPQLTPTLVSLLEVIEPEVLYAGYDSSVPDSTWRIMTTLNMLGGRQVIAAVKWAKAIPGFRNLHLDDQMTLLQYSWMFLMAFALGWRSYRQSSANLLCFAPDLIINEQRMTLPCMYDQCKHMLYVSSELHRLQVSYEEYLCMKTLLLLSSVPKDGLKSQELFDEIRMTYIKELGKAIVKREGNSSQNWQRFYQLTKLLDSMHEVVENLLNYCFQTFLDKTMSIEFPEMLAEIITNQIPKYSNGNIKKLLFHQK

Structure (SMILES): c1ccc2c(c1)Sc1ccccc1N2CC1CN2CCC1CC2 (stereo not drawn)
- Potency [1]: inconclusive: 29.8 µM [cytotoxic, single point]
- Potency [2]: inconclusive: 29.8 µM [cytotoxic, single point]
- Potency [3]: inconclusive: 18.8 µM [falling, partial curve, poor fit]
- Potency [4]: inconclusive: 10.6 µM [activator]
- Potency [5]: active: 21.3 µM
- Potency [6]: active: 8.41 µM
- activity change, negative = cytotoxicity [7]: inconclusive: -57.8% [cytotoxic]

Structure (SMILES): CC(C)N1C(=O)N(c2ccccc2)CSC1=NC(C)(C)C
- Potency [1]: inconclusive: 77 µM
- Potency [2]: inconclusive: 61.1 µM [cytotoxic, single point]
- Potency [8]: active: 15.4 µM
- Potency [4]: active: 38.6 µM
- Potency [5]: inconclusive: 54.9 µM [inhibitor, single point]
- Potency [9]: inconclusive: 54.9 µM [cytotoxic, single point]
- Potency [10]: active: 21.7 µM
- Potency [11]: active: 19.3 µM

Structure (SMILES): OC(c1ccc(Cl)cc1)(c1ccc(Cl)cc1)C(Cl)(Cl)Cl
- Potency [1]: inconclusive: 61.1 µM [falling, partial curve]
- Potency [2]: active: 61.1 µM
- Potency [3]: inconclusive: 77 µM [falling, partial curve, poor fit]
- Potency [8]: inconclusive: 68.6 µM [cytotoxic]
- Potency [12]: inconclusive: 54.9 µM [falling, single point]
- Potency [5]: inconclusive: 54.9 µM [cytotoxic]
- Potency [9]: inconclusive: 54.9 µM [cytotoxic, single point]
- Potency [7]: inconclusive: 54.9 µM [cytotoxic, single point]

Structure (SMILES): CC(C)[C@H](C(=O)OC(C#N)c1cccc(Oc2ccccc2)c1)c1ccc(OC(F)F)cc1 (stereo partly drawn)
- Potency [1]: inconclusive: 68.6 µM [falling, single point]
- Potency [2]: inconclusive: 13.7 µM [cytotoxic, partial curve, poor fit]
- Potency [8]: inconclusive: 54.5 µM [cytotoxic, partial curve, poor fit]
- Potency [4]: active: 17.2 µM
- Potency [12]: inconclusive: 49 µM
- activity change, negative = inhibition [5]: inconclusive: -11.5%

Structure (SMILES): CCOC(=O)C(O)(c1ccc(Cl)cc1)c1ccc(Cl)cc1
- Potency [1]: active: 27.6 µM
- Potency [2]: active: 15.5 µM and inconclusive: 68.6 µM [cytotoxic, single point]
- Potency [8]: inconclusive: 68.6 µM [cytotoxic, partial curve, poor fit]
- Potency [12]: inconclusive: 11.1 µM [cytotoxic, full curve] and inconclusive: 61.6 µM
- Potency [5]: inconclusive: 24.8 µM [cytotoxic] and inconclusive: 27.5 µM [inhibitor, partial curve]
- Potency [9]: active: 17.6 µM and inconclusive: 54.9 µM [cytotoxic, single point]
- Potency [10]: active: 6.18 µM and active: 19.3 µM
- Potency [11]: active: 2.19 µM and active: 24.3 µM
- Potency [6]: active: 3.9 µM and active: 17.2 µM
- Potency [7]: active: 7.84 µM and inconclusive: 24.5 µM [cytotoxic, full curve]

Structure (SMILES): Oc1cc(Cl)c(Cl)c(Cl)c1
- Potency [1]: inconclusive: 20.6 µM [falling, full curve]
- Potency [2]: inconclusive: 46.1 µM [cytotoxic, partial curve, poor fit]
- Potency [8]: inconclusive: 4.61 µM [cytotoxic, partial curve, poor fit]
- Potency [4]: active: 2.31 µM
- Potency [5]: inconclusive: 18.5 µM [falling, partial curve, poor fit]
- Potency [9]: inconclusive: 18.5 µM [cytotoxic, partial curve]
- Potency [7]: active: 32.9 µM

Structure (SMILES): CC(C)(c1cc(Cl)c(O)c(Cl)c1)c1cc(Cl)c(O)c(Cl)c1
- Potency [1]: inconclusive: 68.6 µM [activator] and inconclusive: 48.6 µM [cytotoxic, partial curve]
- Potency [2]: inconclusive: 77 µM [cytotoxic, single point]
- Potency [8]: inconclusive: 61.1 µM [cytotoxic, partial curve, poor fit]
- Potency [4]: active: 2.43 µM and active: 2.73 µM
- Potency [5]: active: 12.3 µM and active: 6.92 µM
- Potency [9]: inconclusive: 54.9 µM [cytotoxic]
- Potency [7]: inconclusive: 49 µM [cytotoxic, partial curve, poor fit] and inconclusive: 30.9 µM [cytotoxic, partial curve]
